PubChem BioAssay AID602332 (National Center for Advancing Translational Sciences (NCATS), 2012)
Screen size: about 420,000 compounds; about 75 (0.02%) were called active. Inconclusive results, whose numbers are uncertain, are shown with a selection of clear calls. Calls follow the shape of the dose curve; as a rule, active = well fitted activation curve with a large enough effect; inconclusive = small, poorly fitted or top-dose-only effect; inactive = no such curve, though single readings can be large or run the other way. Potencies of inconclusive entries are doubtful fits and often do not repeat.

test: qHTS for Inducers of the Endoplasmic Reticulum Stress Response (ERSR) in Human Glioma: qHTS; conditions: U87-MG GRP78 promoter luciferase reporter, 16 h; activation: hits give high values; also: nearly all actives have a fitted effect of over 35% in size; as to activation: % of control where 0% means no effect
Procedure, shortened: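 Stably transfected U87-MG glioma cells carrying a GRP78-based luciferase sensor; 16 h compound incubation. Luminescence end-point read 10 min after Bright-Glo addition at room temperature.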
Potency is read from the fitted curve at half-maximal effect; tags tell the direction and shape of the fitted curve.

**Q.** With Oc1ccccc1C1C=C(c2ccc3c(c2)OCO3)NC(c2ccc(F)c(Br)c2)N1 (configuration not stated) as the compound, how does the Potency read?
**A.** inconclusive: 15.8 µM [activator, single point]

**Q.** Which Potency does the source give for COc1cc(OC)c(NS(=O)(=O)c2ccc3oc(=O)c4ncn(C)c4c3c2)cc1Cl here?
**A.** inconclusive: 28.2 µM [activator, single point]

**Q.** With Cc1ccc(C(C(=O)NC2CCCCC2)N(Cc2cccnc2)C(=O)c2csnn2)cc1 (configuration not stated) as the compound, how does the Potency read?
**A.** inconclusive: 10 µM [activator, single point]

**Q.** For CCC(C)[C@H](NC(=O)OC(C)(C)C)C(=O)N/N=C/C1=Cc2ccccc2OC1 (some centres not stated), which Potency is on record?
**A.** inconclusive: 10 µM [activator, single point]

**Q.** Which activation does the source give for CCN(C(=O)Cn1c(=O)n(-c2ccccc2)c(=O)c2ccc(C(=O)NCc3ccc4c(c3)OCO4)cc21)c1cccc(C)c1 here?
**A.** inactive: -2.63%

**Q.** With O=C(CCl)Nc1ccccc1C(=O)NCc1ccccc1 as the compound, how does the activation read?
**A.** inactive: -14%

**Q.** For CCOc1cccc(C2C=C(c3ccc4c(c3)OCO4)NC(c3ccc(F)cc3)N2)c1O (configuration not stated), which Potency is on record?
**A.** inconclusive: 44.7 µM [activator, partial curve, poor fit]

**Q.** With Cc1ccc(NC2=C(Cl)C(=O)OC2OC(=O)c2ccccc2)c(C)c1 (configuration not stated) as the compound, how does the activation read?
**A.** inactive: -6.68%

**Q.** With COCO[C@H]([C@@H](C)C=C(Br)Br)[C@@H](C)COCc1ccc(OC)cc1 as the compound, how does the activation read?
**A.** inactive: -6.27%

**Q.** Which activation does the source give for Cc1cccc2cc(CN(Cc3ccccc3)Cc3nnnn3Cc3ccccc3)c(=O)[nH]c12 here?
**A.** inactive: -3.19%

**Q.** With O=C(c1cccc(F)c1)N1CCC[C@@]2(CCN(C(c3ccccc3)c3ccccc3)C2)C1 as the compound, how does the Potency read?
**A.** active: 12.6 µM

**Q.** With CCOC(=O)c1nnn(-c2nonc2-n2cccc2)c1CCl as the compound, how does the Potency read?
**A.** inconclusive: 50.1 µM [activator, single point]

**Q.** Which activation does the source give for O=C(NC(Cc1ccccc1)C(=O)N1CCN(c2ccccc2O)CC1)c1ccccc1 (configuration not stated) here?
**A.** inactive: -3.68%

**Q.** With Nc1ccc(Sc2ccccc2)nc1 as the compound, how does the activation read?
**A.** inactive: 7.7%

**Q.** For Fc1ccc(N/N=C/c2ccncc2)c(F)c1, which activation is on record?
**A.** inactive: 5%

**Q.** With O=C(CSc1ccccc1)NC1CCCCCCC1 as the compound, how does the Potency read?
**A.** inconclusive: 10 µM [activator, partial curve, poor fit]

**Q.** For Nc1c(C(=O)Nc2ccc(S(=O)(=O)N3CCCC3)cc2)sc2nc3ccc(OC(F)(F)F)cc3cc12, which Potency is on record?
**A.** inconclusive: 5.01 µM [activator, full curve, poor fit]

**Q.** Which Potency does the source give for N#C/C(=C(/O)CCl)c1nc2ccccc2[nH]1 here?
**A.** active: 25.1 µM

**Q.** Which Potency does the source give for CCN(CC)c1cc(Oc2ccccc2)ncn1 here?
**A.** inconclusive: 12.6 µM [activator, partial curve, poor fit]

**Q.** For COc1cc(C2c3c(-c4ccccc4O)n[nH]c3C(=O)N2Cc2ccco2)ccc1OCC(C)C (configuration not stated), which Potency is on record?
**A.** inconclusive: 10 µM [activator, single point]

**Q.** Which activation does the source give for CC(=O)n1cc(N(C(=O)CCl)c2ccccc2)c2ccccc21 here?
**A.** inactive: -13.8%

**Q.** With COc1ccccc1-c1noc(CCCC(=O)Nc2cc(C)ccc2C)n1 as the compound, how does the Potency read?
**A.** inconclusive: 20 µM [activator, single point]

**Q.** Which activation does the source give for O=C1C=CC(=Nc2ccc(F)cc2)O1 here?
**A.** inactive: -5.54%

**Q.** With Cc1ccc(OCC(=O)Nc2ccc(Cl)c(-c3nc4ncccc4o3)c2)c(C)c1 as the compound, how does the activation read?
**A.** inactive: -3.11%

**Q.** For COc1ccc(N(C(=O)c2ccccc2)S(=O)(=O)c2cccs2)cc1, which Potency is on record?
**A.** active: 31.6 µM

**Q.** For CS(=O)(=O)c1ccc(C(=O)OCc2nnc(-c3ccc(Cl)cc3)o2)cc1[N+](=O)[O-], which Potency is on record?
**A.** inconclusive: 10 µM [activator, single point]

**Q.** For CC(C)C(=O)NC(c1ccc(Cl)cc1Cl)c1ccc2cccnc2c1O (configuration not stated), which activation is on record?
**A.** inactive: -3.25%

**Q.** Which activation does the source give for CCC(CO)NCC#Cc1ccccc1 (configuration not stated) here?
**A.** inactive: 6.85%

**Q.** For COc1ccc(/C=N/N=C/c2ccc(OC)c(O)c2)cc1O, which activation is on record?
**A.** inactive: 2.87%

**Q.** With COc1ccc(CCNC(=O)CSc2nc3ncccc3[nH]2)c(OC)c1 as the compound, how does the Potency read?
**A.** inconclusive: 28.2 µM [activator, single point]

**Q.** Which Potency does the source give for CSc1ccc(/C=C/C(=O)c2ccc(NC(=O)C(C)C)cc2)cc1 here?
**A.** inconclusive: 22.4 µM [activator, single point]

**Q.** With CCOc1ccc(S(=O)(=O)N2CCN(C(=O)CN3C(=O)NC4(CCCC4)C3=O)CC2)cc1 as the compound, how does the activation read?
**A.** inactive: -3.04%

**Q.** For Cn1cnnc1Sc1c([N+](=O)[O-])ncn1C, which Potency is on record?
**A.** inconclusive: 22.4 µM [activator, full curve]

**Q.** With Cc1ccc(SCc2[nH]nc3c2C2(C(=O)Nc4ccc(F)cc42)C(C#N)=C(N)O3)cc1 (configuration not stated) as the compound, how does the activation read?
**A.** inactive: -2.89%

**Q.** With CC(=O)Nc1cc(-c2ccc(CO)cc2)cn2c(-c3ccc(F)c(Cl)c3)cnc12 as the compound, how does the Potency read?
**A.** inconclusive: 44.7 µM [activator, single point]

**Q.** Which activation does the source give for CCCCn1nc(C(=O)Oc2ccc3c(C)cc(=O)oc3c2)c2ccccc2c1=O here?
**A.** inactive: -3.5%

**Q.** With Cc1cc(C)cc(-n2nnn(C3C/C(=N/NC(N)=S)C4OCC3O4)c2=S)c1 (configuration not stated) as the compound, how does the activation read?
**A.** inactive: 0.522%

**Q.** With O=C1NN(c2ccccc2)C(=O)/C1=C/c1ccc(Sc2ccc(Cl)cc2)o1 as the compound, how does the activation read?
**A.** inactive: -3.48%

**Q.** Which Potency does the source give for Cc1ccc(NC(=O)NCc2ccc3c(c2)OCO3)cc1 here?
**A.** inconclusive: 28.2 µM [activator, single point]

**Q.** For COc1ccc(-c2cc(C(=O)Nc3cc(OC)c(OC)c(OC)c3)no2)cc1OC, which activation is on record?
**A.** inactive: -4.47%

**Q.** Which activation does the source give for Cc1ccc(-c2cc(C(=O)Nc3ccccc3C)c3ccccc3n2)o1 here?
**A.** inactive: -4.18%

**Q.** Which Potency does the source give for Nc1ccc2oc(=O)c(-c3ccccc3)cc2c1 here?
**A.** inconclusive: 8.91 µM [activator, partial curve, poor fit]

**Q.** For N/C(=N\OC(=O)COc1ccc(Br)cc1Cl)c1cccnc1, which Potency is on record?
**A.** inconclusive: 50.1 µM [activator, partial curve, poor fit]

**Q.** For O=C1Nc2ccc(Br)cc2C12NNc1ccccc1O2 (configuration not stated), which activation is on record?
**A.** inactive: -11.2%

**Q.** For COc1nc(OCC#N)nc(N(C)C)n1, which Potency is on record?
**A.** inconclusive: 20 µM [activator, single point]

**Q.** With CCOC(=O)c1ccc(NC(=O)c2c(NCc3cccs3)sc3c2CCCCC3)cc1 as the compound, how does the Potency read?
**A.** inconclusive: 50.1 µM [activator, partial curve, poor fit]

**Q.** For CCN1C(=O)[C@H]2[C@@H](c3ccc(-c4ccc(Cl)c(Cl)c4)c(OC)c3)N[C@@](C)(C(=O)OC)[C@H]2C1=O, which activation is on record?
**A.** inactive: -5.34%
